Source: PubChem BioAssay AID588795 (National Center for Advancing Translational Sciences (NCATS), 2011)
Several values for one entry are separate records, joined by “and”; a condition that tells them apart may be missing. Equal entries are not always repeated. The whole screen tested about 390,000 compounds, of which about 1,400 (0.36%) were called active. Inconclusive results, whose numbers are uncertain, are shown with a selection of clear calls. Calls follow the shape of the dose curve; as a rule, active = well fitted inhibition curve with a large enough effect; inconclusive = small, poorly fitted or top-dose-only effect; inactive = no such curve, though single readings can be large or run the other way. Potencies beside an inconclusive call are fits to weak or partial responses and may not hold up. More than one record can exist for a structure, and the calls need not agree.

Biological target: Flap endonuclease 1 (Homo sapiens) (UniProt P39748)
Experiment: qHTS Assay for the Inhibitors of Human Flap endonuclease 1 (FEN1). Also: nearly all actives have a fitted effect of over 65% in size.
Details: Recombinant FEN1 flap cleavage, fluorescence, 15 min; series mostly up to 114 µM; activity change, negative = inhibition: at the top concentration
How it was run: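 FEN1 at 10 nM, compound pretreatment for 15 min (room temperature), 50 nM final substrate to initiate; endpoint reads at 0 and 15 min; DMSO-only plates used as vehicle background.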
% is scaled to controls: 0 for no effect and ±100 for the full control effect; potency is read from the fitted curve at half-maximal effect; tags tell the direction and shape of the fitted curve.

Chain of UniProt P39748 (P39748 whole entry, looked up): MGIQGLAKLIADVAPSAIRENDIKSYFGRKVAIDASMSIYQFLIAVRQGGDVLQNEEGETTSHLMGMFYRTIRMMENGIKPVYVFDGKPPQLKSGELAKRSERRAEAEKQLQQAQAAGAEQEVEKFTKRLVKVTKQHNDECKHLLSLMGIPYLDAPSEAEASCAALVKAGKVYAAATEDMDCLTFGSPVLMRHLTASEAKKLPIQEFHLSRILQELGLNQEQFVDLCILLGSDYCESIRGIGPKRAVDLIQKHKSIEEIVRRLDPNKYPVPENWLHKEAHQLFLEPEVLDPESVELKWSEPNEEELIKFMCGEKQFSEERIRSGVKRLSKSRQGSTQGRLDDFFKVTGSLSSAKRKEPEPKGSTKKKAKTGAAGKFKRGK

| Structure (SMILES) | Potency | activity change, negative = inhibition |
| --- | --- | --- |
| CC1=NN(c2ccccc2)C(=O)/C1=C/c1c(O)n(-c2ccc(F)cc2)[nH]c1=O | inconclusive: 22.4 µM [inhibitor, partial curve, poor fit] |  |
| COc1cc(/C=C(\C#N)c2nc(-c3cc4ccccc4oc3=O)cs2)ccc1O | inconclusive: 89.1 µM [inhibitor, partial curve, poor fit] |  |
| Clc1ccccc1CSc1nnc(-c2ccco2)c(-c2ccco2)n1 | inconclusive: 56.2 µM [inhibitor, partial curve, poor fit] |  |
| O=C(Nc1ccc(Br)c2ccccc12)c1ccc2ccccc2c1O | inconclusive: 31.6 µM [inhibitor, partial curve, poor fit] |  |
| O=C(/C=C/c1ccc([N+](=O)[O-])cc1)c1ccco1 |  | inactive: 22.6% |
| Nc1c(/C=C2/C=CC(=O)C(O)=C2)c(=O)nc2sc(CC(=O)N3CCCC3)nn12 | inconclusive: 15.8 µM [inhibitor, full curve, poor fit] |  |
| C/C(=N\NC(=O)c1cc(O)ccc1O)c1cccc(NC(=O)c2ccc(Cl)cc2)c1 | inconclusive: 56.2 µM [inhibitor, partial curve] |  |
| Cc1nn(CC(=O)Nc2ccc3c(c2)nc(CN2CCCC2)n3C)c(=O)c2ccccc12 | inconclusive: 89.1 µM [inhibitor, partial curve, poor fit] |  |
| COc1cc(/C=C(/C(=O)c2cccs2)c2nc3ccccc3[nH]2)cc(OC)c1O | inconclusive: 89.1 µM [inhibitor, partial curve, poor fit] |  |
| Cc1ccc2onc(CNC(=O)Nc3ccccc3C#N)c2c1 |  | inactive: -0.239% |
| O=C(Nc1ccc(F)cc1Cl)C1CCN(c2ncnc3c2nc2n3CCCCC2)CC1 |  | inactive: 1.12% |
| O=C(C1=C(O)C(=O)N(c2ncccn2)C1c1cccs1)c1ccco1 (configuration not stated) | inconclusive: 56.2 µM [inhibitor, partial curve, poor fit] |  |
| CC(=O)c1ccccc1OCC(O)CN1CCN(CCN2C(=O)c3cccc4cccc(c34)C2=O)CC1 (configuration not stated) | inconclusive: 50.1 µM [inhibitor, partial curve] |  |
| Cc1c(CCC(=O)O)c(=O)oc2cc3occ(-c4ccc(F)cc4)c3cc12 | inconclusive: 39.8 µM [inhibitor, partial curve, poor fit] |  |
| COc1cccc(NC(=O)CSc2nc3c(c(-c4ccco4)c2C#N)CCCC3)c1 |  | inactive: -5.42% |
| CC/C(=N/NC(=O)c1ccc2c(c1)OCO2)c1ccccc1O | inconclusive: 3.55 µM [inhibitor, partial curve, poor fit] |  |
| CC1OC(OCC2OC(Oc3c(-c4ccc(O)cc4)oc4cc(O)cc(O)c4c3=O)C(O)C(O)C2O)C(O)C(O)C1O (configuration not stated) | inconclusive: 44.7 µM [inhibitor, partial curve] |  |
| COc1ccc(-c2nc(SCC(=O)Nc3ccc4c(c3)OCO4)c(-c3ccccc3)[nH]2)cc1 | inconclusive: 79.4 µM [inhibitor, partial curve, poor fit] |  |
| Cc1ccc(NC(=O)c2nc[nH]c2C(=O)N2CCOCC2)c(C(=O)c2ccccc2)c1 |  | inactive: 12.2% |
| COc1cccc2sc(Nc3nc(-c4cc5ccccc5oc4=O)cs3)nc12 | inconclusive: 89.1 µM [inhibitor, single point] |  |
| CC1=NOC(=O)/C1=C/c1ccc(O)cc1 |  | inactive: 8.07% |

| Structure (SMILES) | Potency | activity change, negative = inhibition |
| --- | --- | --- |
| COC(=O)/C(=C\C(=O)c1ccccc1)Nc1ccc(OC)cc1 | inconclusive: 89.1 µM [inhibitor, partial curve, poor fit] |  |
| CC(C)(Oc1ccc(CCNC(=O)c2ccc(Cl)cc2)cc1)C(=O)O | inconclusive: 3.55 µM [inhibitor, partial curve, poor fit] and inconclusive: 3.36 µM [inhibitor, partial curve, poor fit] |  |
| CC(=O)COc1ccc2oc(=O)cc(-c3cc4ccccc4o3)c2c1 | inconclusive: 89.1 µM [inhibitor, single point] |  |
| CCn1cc(C(=O)OCC(=O)OC2CC(C)CCC2C(C)C)c(=O)c2ccc(C)nc21 (configuration not stated) | inconclusive: 50.1 µM [inhibitor, partial curve, poor fit] |  |
| Cc1cc(S(=O)(=O)ON2C(=O)c3ccccc3C2=O)ccc1F | inconclusive: 79.4 µM [inhibitor, single point] |  |
| COC(=O)c1c(NC(=O)CCCOc2ccc(C(C)(C)C)cc2)sc2c1C(C(=O)OC)CC2 (configuration not stated) | inconclusive: 44.7 µM [inhibitor, partial curve] |  |
| COC(=O)c1cc2sc(Cl)cc2n1Cc1c(C)cc(C)cc1C |  | inactive: 1.83% |
| Cc1ccc(NC(=S)/N=C(\N)Nc2nc(C)c3cc(C)ccc3n2)c(C)c1 | inconclusive: 56.2 µM [inhibitor, partial curve, poor fit] |  |
| CC1=CC(=O)N(c2cccc(C(F)(F)F)c2)C1c1ccc(Cl)cc1 (configuration not stated) | inconclusive: 79.4 µM [inhibitor, partial curve, poor fit] |  |
| O=S(=O)(/N=S1\CC=CCN1S(=O)(=O)c1ccccc1)c1ccccc1 (configuration not stated) | inconclusive: 89.1 µM [inhibitor, single point] |  |
| CCCCOc1ccc(C(=O)NCCc2csc(-c3cccc(F)c3)n2)cc1 | inconclusive: 35.5 µM [inhibitor, partial curve, poor fit] |  |
| COc1cc(C2N(c3ccccc3)CCN2c2ccccc2)cc(OC)c1OC | inconclusive: 79.4 µM [inhibitor, partial curve, poor fit] |  |
| Nc1c(C(=O)NCCN2CCOCC2)c2nc3ccccc3nc2n1CCc1ccccc1F | inconclusive: 89.1 µM [inhibitor, partial curve, poor fit] |  |
| CCOc1cc(/C=C2\SC(=S)N(C(C(=O)O)c3ccccc3)C2=O)ccc1O (configuration not stated) | inconclusive: 56.2 µM [inhibitor, partial curve, poor fit] |  |
| N#CCc1cc2ccc3cccc4ccc(c1)c2c34 | inconclusive: 14.1 µM [inhibitor, full curve] |  |
| CN(C)c1ccc(/C=C/c2nc3ccccc3s2)cc1 | active: 50.1 µM |  |
| CCOC(=O)c1c(-c2ccccc2)oc2cc(Br)c(O)cc12 | inconclusive: 14.1 µM [inhibitor, partial curve, poor fit] |  |
| O=C(O)c1ccc(N/N=C/c2ccnc3ccccc23)cc1 | inconclusive: 56.2 µM [inhibitor, partial curve, poor fit] |  |
| COc1ccc2c(c1)c(C(C)=O)c(C)n2CCc1ccccc1 | inconclusive: 35.5 µM [inhibitor, partial curve, poor fit] |  |
| O=C(c1ccccc1)c1ccc(OCCOCCN2CCN(Cc3ccccc3)CC2)cc1 |  | inactive: -4.95% |
| Cc1cc2oc3cc(NCCC4CCCN4C)ccc3c(=O)c2cc1C (configuration not stated) | active: 35.5 µM |  |

| Structure (SMILES) | Potency | activity change, negative = inhibition |
| --- | --- | --- |
| O=C(NC[C@H]1CCCO1)c1cccc2c1C(=O)c1ccc(-c3ccc(F)cc3OCc3ccccc3)cc1S2(=O)=O |  | inactive: 2.47% |
| COc1ccc(C(C)=O)cc1CSc1nnnn1-c1ccc(O)cc1 | inconclusive: 100 µM [inhibitor, single point] |  |
| CCN(C(=O)c1ccc2c(c1)N(Cc1cccc(Cl)c1)C(=O)c1ccccc1S2=O)c1ccccc1 (configuration not stated) | inconclusive: 79.4 µM [inhibitor, partial curve, poor fit] |  |
| Cc1ccc(C(=O)Nc2ccc(F)cc2)cc1S(=O)(=O)N1CCCCCC1 | inconclusive: 79.4 µM [inhibitor, partial curve, poor fit] |  |
| Cc1cccc(C)c1OCc1cc(=O)n2c(-c3ccccc3)csc2n1 |  | inactive: 16.4% |
| Cc1cccc(Cn2c(C)c(C)c3cc(C(=O)NCc4ccco4)ccc32)c1 |  | inactive: 8.13% |
| Cc1ccc(-c2csc3ncnc(Oc4ccc5c(C)cc(=O)oc5c4)c23)cc1 | inconclusive: 56.2 µM [inhibitor, partial curve, poor fit] |  |
| CN(C)C=Nc1ncc2c([nH]c3ccccc32)c1C#N | inconclusive: 50.1 µM [inhibitor, partial curve, poor fit] |  |
| COc1cccc(/C=N/Nc2nn3cnnc3c3ccccc23)c1O | inconclusive: 3.98 µM [inhibitor, partial curve, poor fit] |  |
| COc1cc(NC(=O)CSc2nc3[nH]ncc3c(=O)n2-c2ccc(Cl)cc2)cc(OC)c1 | inconclusive: 70.8 µM [inhibitor, partial curve, poor fit] |  |
| CCCNC(=O)C(=O)NCC(c1ccc2c(c1)OCO2)N1CCOCC1 (configuration not stated) |  | inactive: -2.09% |
| CC(=O)Nc1cccc(-c2nc3ccccc3s2)c1 |  | inactive: -10% |
| Cc1ccc2c(=O)cc(C(=O)Nc3ccc(S(=O)(=O)Nc4nc(C)cc(C)n4)cc3)oc2c1 | inconclusive: 56.2 µM [inhibitor, partial curve, poor fit] |  |
| O=CC(=O)c1ccc(Br)cc1 |  | inactive: -6.75% |
| COc1cccc(-c2nnc(Nc3nc4c(F)cccc4s3)o2)c1 | inconclusive: 79.4 µM [inhibitor, single point] |  |
| CCOc1ccc(NS(=O)(=O)c2ccc(-c3cnc(C4CC4)o3)cc2)cc1 | inconclusive: 17.8 µM [inhibitor, partial curve, poor fit] |  |
| COc1cc(-c2nnc(COC(=O)c3cc(C)nc4ccc(C)cc34)o2)cc(OC)c1OC | inconclusive: 4.47 µM [inhibitor, full curve] |  |
| CC[C@]12c3[nH]c4ccccc4c3CCN1C(=O)C(CC(=O)NCC13CC4CC(CC(C4)C1)C3)C[C@@H]2C(=O)N1CCN(C(=O)C2CC2)CC1 (some centres not stated) |  | inactive: 12.6% |
| O=C(N/N=C1/CC2C=CCC12)c1ccco1 (configuration not stated) |  | inactive: 9.2% |
| O=C1/C(=C/c2cccc(O)c2)SC(=S)N1CC1CCCO1 (configuration not stated) |  | inactive: -1.26% |
